# According to the supplement of paper PMC8728848:
# This is one part of the list.
# B1: LecB PA7 (Pseudomonas aeruginosa) (protein)
# chain: MATQGVFTLPANTRFGVTAFANSSATQTVKVLVNNETAATFTGQSTNNAVIGSQVLNSGGGGKVQIQVSVNGRSSDLVSAQVILANELNVALVGSEDSTDNDYNDAVVVINWPLG
# Tests used:
# Experiment in all cases: glycan array binding signal (z-score within array); higher = stronger binding
# Settings in all cases: glycan notation: IUPAC condensed, linker removed
# [1] = target: GlcNAc(b1-4)GlcNAc(b1-4)GlcNAc(b1-4)GlcNAc(b1-4)GlcNAc(b1-4)GlcNAc
# Outline: (§1)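 Arrays were curated from the Consortium for Functional Glycomics database, 3228 in total, and kept only where the protein sequence was available. Binding is expressed as a within-array Z-score. This score was averaged across arrays of the same protein sequence at different concentrations or buffers and across linkers, and negative values can be read as non-binding.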
# [2] = target: GlcNAc(b1-4)[GlcNAc(b1-6)]GalNAc
# Outline: as §1
# [3] = target: GlcNAc(b1-6)Gal(b1-4)GlcNAc
# Outline: as §1
# GlcNAc(b1-6)GalNAc = target: GlcNAc(b1-6)GalNAc
# Outline: as §1
# [4] = target: GlcNAc6S(b1-3)Gal(b1-4)GlcNAc
# Outline: as §1
# Kdn(a2-3)Gal(b1-3)GalNAc = target: Kdn(a2-3)Gal(b1-3)GalNAc
# Outline: as §1
# Kdn(a2-3)Gal(b1-3)GlcNAc = target: Kdn(a2-3)Gal(b1-3)GlcNAc
# Outline: as §1
# Kdn(a2-3)Gal(b1-4)Glc = target: Kdn(a2-3)Gal(b1-4)Glc
# Outline: as §1
# Kdn(a2-3)Gal(b1-4)GlcNAc = target: Kdn(a2-3)Gal(b1-4)GlcNAc
# Outline: as §1
# [5] = target: Kdn(a2-3)Gal(b1-4)[Fuc(a1-3)]GlcNAc
# Outline: as §1
# Kdn(a2-6)Gal(b1-4)GlcNAc = target: Kdn(a2-6)Gal(b1-4)GlcNAc
# Outline: as §1
# [6] = target: Man(a1-2)Man(a1-2)Man(a1-3)Man
# Outline: as §1
# [7] = target: Man(a1-2)Man(a1-2)Man(a1-6)[Man(a1-3)]Man
# Outline: as §1
# Man(a1-2)Man(a1-3)Man = target: Man(a1-2)Man(a1-3)Man
# Outline: as §1
# [8] = target: Man(a1-2)Man(a1-3)[Man(a1-2)Man(a1-6)]Man
# Outline: as §1
# [9] = target: Man(a1-2)Man(a1-3)[Man(a1-2)Man(a1-6)]Man(a1-6)[Man(a1-2)Man(a1-2)Man(a1-3)]Man
# Outline: as §1
# [10] = target: Man(a1-2)Man(a1-3)[Man(a1-2)Man(a1-6)]Man(a1-6)[Man(a1-2)Man(a1-2)Man(a1-3)]Man(b1-4)GlcNAc(b1-4)GlcNAc
# Outline: as §1
# [11] = target: Man(a1-2)Man(a1-3)[Man(a1-6)]Man(a1-6)[Man(a1-2)Man(a1-3)]Man(b1-4)GlcNAc(b1-4)GlcNAc
# Outline: as §1
# [12] = target: Man(a1-2)Man(a1-6)[Man(a1-3)]Man(a1-6)[Man(a1-2)Man(a1-2)Man(a1-3)]Man
# Outline: as §1
# [13] = target: Man(a1-2)Man(a1-6)[Man(a1-3)]Man(a1-6)[Man(a1-2)Man(a1-2)Man(a1-3)]Man(b1-4)GlcNAc(b1-4)GlcNAc
# Outline: as §1
# Man(a1-3)[Man(a1-6)]Man = target: Man(a1-3)[Man(a1-6)]Man
# Outline: as §1
# [14] = target: Man(a1-3)[Man(a1-6)]Man(a1-6)[Man(a1-2)Man(a1-3)]Man(b1-4)GlcNAc(b1-4)GlcNAc
# Outline: as §1
# [15] = target: Man(a1-3)[Man(a1-6)]Man(a1-6)[Man(a1-3)]Man
# Outline: as §1
# [16] = target: Man(a1-3)[Man(a1-6)]Man(a1-6)[Man(a1-3)]Man(b1-4)GlcNAc(b1-4)GlcNAc
# Outline: as §1
# [17] = target: Man(a1-3)[Man(a1-6)]Man(b1-4)GlcNAc(b1-4)GlcNAc
# Outline: as §1
# [18] = target: Man(a1-3)[Man(a1-6)]Man(b1-4)GlcNAc(b1-4)[Fuc(a1-6)]GlcNAc
# Outline: as §1
# Man(a1-6)Man = target: Man(a1-6)Man
# Outline: as §1
# Man(b1-4)GlcNAc = target: Man(b1-4)GlcNAc
# Outline: as §1
# MurNAc(b1-4)GlcNAc = target: MurNAc(b1-4)GlcNAc
# Outline: as §1
# Neu5Ac(a2-3)Gal = target: Neu5Ac(a2-3)Gal
# Outline: as §1
# [19] = target: Neu5Ac(a2-3)Gal(b1-3)GalNAc
# Outline: as §1
# [20] = target: Neu5Ac(a2-3)Gal(b1-3)GalNAc(b1-3)Gal(a1-4)Gal(b1-4)Glc
# Outline: as §1
# [21] = target: Neu5Ac(a2-3)Gal(b1-3)GalNAc(b1-4)Gal(b1-4)Glc
# Outline: as §1
# [22] = target: Neu5Ac(a2-3)Gal(b1-3)GalNAc(b1-4)[Neu5Ac(a2-3)]Gal(b1-4)Glc
# Outline: as §1
# [23] = target: Neu5Ac(a2-3)Gal(b1-3)GalNAc(b1-4)[Neu5Ac(a2-8)Neu5Ac(a2-3)]Gal(b1-4)Glc
# Outline: as §1
# [24] = target: Neu5Ac(a2-3)Gal(b1-3)GalNAc6S
# Outline: as §1
# [25] = target: Neu5Ac(a2-3)Gal(b1-3)GlcNAc
# Outline: as §1
# [26] = target: Neu5Ac(a2-3)Gal(b1-3)GlcNAc(b1-2)Man
# Outline: as §1
# [27] = target: Neu5Ac(a2-3)Gal(b1-3)GlcNAc(b1-2)Man(a1-3)[GlcNAc(b1-4)][Neu5Ac(a2-3)Gal(b1-3)GlcNAc(b1-2)Man(a1-6)]Man(b1-4)GlcNAc(b1-4)GlcNAc
# Outline: as §1
# [28] = target: Neu5Ac(a2-3)Gal(b1-3)GlcNAc(b1-2)Man(a1-3)[Neu5Ac(a2-3)Gal(b1-3)GlcNAc(b1-2)Man(a1-6)]Man(b1-4)GlcNAc(b1-4)GlcNAc
# Outline: as §1
# [29] = target: Neu5Ac(a2-3)Gal(b1-3)GlcNAc(b1-2)[Neu5Ac(a2-3)Gal(b1-3)GlcNAc(b1-4)]Man(a1-6)[Neu5Ac(a2-3)Gal(b1-3)GlcNAc(b1-2)Man(a1-3)]Man(b1-4)GlcNAc(b1-4)GlcNAc
# Outline: as §1
# [30] = target: Neu5Ac(a2-3)Gal(b1-3)GlcNAc(b1-3)Gal(b1-3)GlcNAc
# Outline: as §1
# [31] = target: Neu5Ac(a2-3)Gal(b1-3)GlcNAc(b1-3)Gal(b1-4)GlcNAc
# Outline: as §1
# [32] = target: Neu5Ac(a2-3)Gal(b1-3)GlcNAc(b1-3)GalNAc
# Outline: as §1
# [33] = target: Neu5Ac(a2-3)Gal(b1-3)GlcNAc(b1-6)GalNAc
# Outline: as §1
binder,measurement,setting,value
B1,glycan array binding signal (z-score),[1],-0.497
same,glycan array binding signal (z-score),[2],-0.516
same,glycan array binding signal (z-score),[3],-0.448
same,glycan array binding signal (z-score),GlcNAc(b1-6)GalNAc,-0.504
same,glycan array binding signal (z-score),[4],-0.504
same,glycan array binding signal (z-score),Kdn(a2-3)Gal(b1-3)GalNAc,-0.157
same,glycan array binding signal (z-score),Kdn(a2-3)Gal(b1-3)GlcNAc,-0.511
same,glycan array binding signal (z-score),Kdn(a2-3)Gal(b1-4)Glc,-0.485
same,glycan array binding signal (z-score),Kdn(a2-3)Gal(b1-4)GlcNAc,-0.509
same,glycan array binding signal (z-score),[5],-0.183
same,glycan array binding signal (z-score),Kdn(a2-6)Gal(b1-4)GlcNAc,-0.503
same,glycan array binding signal (z-score),[6],1.01
same,glycan array binding signal (z-score),[7],2.29
same,glycan array binding signal (z-score),Man(a1-2)Man(a1-3)Man,0.668
same,glycan array binding signal (z-score),[8],1.53
same,glycan array binding signal (z-score),[9],3.2
same,glycan array binding signal (z-score),[10],-0.423
same,glycan array binding signal (z-score),[11],2.02
same,glycan array binding signal (z-score),[12],2.12
same,glycan array binding signal (z-score),[13],2.22
same,glycan array binding signal (z-score),Man(a1-3)[Man(a1-6)]Man,2.23
same,glycan array binding signal (z-score),[14],2.3
same,glycan array binding signal (z-score),[15],-0.31
same,glycan array binding signal (z-score),[16],1.12
same,glycan array binding signal (z-score),[17],2.08
same,glycan array binding signal (z-score),[18],2.24
same,glycan array binding signal (z-score),Man(a1-6)Man,-0.228
same,glycan array binding signal (z-score),Man(b1-4)GlcNAc,-0.416
same,glycan array binding signal (z-score),MurNAc(b1-4)GlcNAc,-0.514
same,glycan array binding signal (z-score),Neu5Ac(a2-3)Gal,-0.509
same,glycan array binding signal (z-score),[19],-0.379
same,glycan array binding signal (z-score),[20],-0.501
same,glycan array binding signal (z-score),[21],-0.42
same,glycan array binding signal (z-score),[22],-0.488
same,glycan array binding signal (z-score),[23],-0.491
same,glycan array binding signal (z-score),[24],-0.517
same,glycan array binding signal (z-score),[25],-0.489
same,glycan array binding signal (z-score),[26],-0.501
same,glycan array binding signal (z-score),[27],-0.348
same,glycan array binding signal (z-score),[28],-0.472
same,glycan array binding signal (z-score),[29],-0.19
same,glycan array binding signal (z-score),[30],-0.512
same,glycan array binding signal (z-score),[31],-0.506
same,glycan array binding signal (z-score),[32],-0.508
same,glycan array binding signal (z-score),[33],-0.507
